# Reference: the supplement of paper PMC8728848
# This is one part of the list.
# Assays:
# Assay in all cases: glycan array binding signal (z-score within array); higher = stronger binding
# Details in all cases: glycan notation: IUPAC condensed, linker removed
# [1] = biological target: GlcNAc(b1-3)Gal(b1-4)GlcNAc(b1-3)Gal(b1-4)GlcNAc(b1-2)Man(a1-3)[GlcNAc(b1-3)Gal(b1-4)GlcNAc(b1-3)Gal(b1-4)GlcNAc(b1-2)Man(a1-6)]Man(b1-4)GlcNAc(b1-4)[Fuc(a1-6)]GlcNAc
# Summary of the method: (§1)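 The binding signal is a Z-score computed within each array. Data were drawn from 3228 arrays in the Consortium for Functional Glycomics database, restricted to those with a known protein sequence. Scores were averaged over arrays of the same protein sequence at different concentrations or buffers, and over linkers, and negative values can be taken as non-binding.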
# [2] = biological target: GlcNAc(b1-3)Gal(b1-4)GlcNAc(b1-3)Gal(b1-4)GlcNAc(b1-2)[GlcNAc(b1-3)Gal(b1-4)GlcNAc(b1-3)Gal(b1-4)GlcNAc(b1-6)]Man(a1-6)[GlcNAc(b1-3)Gal(b1-4)GlcNAc(b1-3)Gal(b1-4)GlcNAc(b1-2)Man(a1-3)]Man(b1-4)GlcNAc(b1-4)[Fuc(a1-6)]GlcNAc
# Summary of the method: as §1
# [3] = biological target: GlcNAc(b1-3)Gal(b1-4)GlcNAc(b1-3)Gal(b1-4)GlcNAc(b1-3)Gal(b1-4)GlcNAc(b1-2)Man(a1-3)[GlcNAc(b1-3)Gal(b1-4)GlcNAc(b1-3)Gal(b1-4)GlcNAc(b1-3)Gal(b1-4)GlcNAc(b1-2)Man(a1-6)]Man(b1-4)GlcNAc(b1-4)GlcNAc
# Summary of the method: as §1
# [4] = biological target: GlcNAc(b1-3)Gal(b1-4)GlcNAc(b1-3)Gal(b1-4)GlcNAc(b1-3)Gal(b1-4)GlcNAc(b1-2)Man(a1-3)[GlcNAc(b1-3)Gal(b1-4)GlcNAc(b1-3)Gal(b1-4)GlcNAc(b1-3)Gal(b1-4)GlcNAc(b1-2)Man(a1-6)]Man(b1-4)GlcNAc(b1-4)[Fuc(a1-6)]GlcNAc
# Summary of the method: as §1
# [5] = biological target: GlcNAc(b1-3)Gal(b1-4)GlcNAc(b1-3)Gal(b1-4)GlcNAc(b1-3)Gal(b1-4)GlcNAc(b1-2)[GlcNAc(b1-3)Gal(b1-4)GlcNAc(b1-3)Gal(b1-4)GlcNAc(b1-3)Gal(b1-4)GlcNAc(b1-6)]Man(a1-6)[GlcNAc(b1-3)Gal(b1-4)GlcNAc(b1-3)Gal(b1-4)GlcNAc(b1-3)Gal(b1-4)GlcNAc(b1-2)Man(a1-3)]Man(b1-4)GlcNAc(b1-4)[Fuc(a1-6)]GlcNAc
# Summary of the method: as §1
# [6] = biological target: GlcNAc(b1-3)Gal(b1-4)GlcNAc(b1-3)Gal(b1-4)GlcNAc(b1-3)Gal(b1-4)GlcNAc(b1-3)Gal(b1-4)GlcNAc(b1-2)Man(a1-3)[GlcNAc(b1-3)Gal(b1-4)GlcNAc(b1-3)Gal(b1-4)GlcNAc(b1-3)Gal(b1-4)GlcNAc(b1-3)Gal(b1-4)GlcNAc(b1-2)Man(a1-6)]Man(b1-4)GlcNAc(b1-4)GlcNAc
# Summary of the method: as §1
# [7] = biological target: GlcNAc(b1-3)Gal(b1-4)GlcNAc(b1-3)Gal(b1-4)GlcNAc(b1-3)Gal(b1-4)GlcNAc(b1-3)Gal(b1-4)GlcNAc(b1-2)Man(a1-3)[GlcNAc(b1-3)Gal(b1-4)GlcNAc(b1-3)Gal(b1-4)GlcNAc(b1-3)Gal(b1-4)GlcNAc(b1-3)Gal(b1-4)GlcNAc(b1-2)Man(a1-6)]Man(b1-4)GlcNAc(b1-4)[Fuc(a1-6)]GlcNAc
# Summary of the method: as §1
# [8] = biological target: GlcNAc(b1-3)Gal(b1-4)GlcNAc(b1-3)Gal(b1-4)GlcNAc(b1-3)Gal(b1-4)GlcNAc(b1-3)Gal(b1-4)GlcNAc(b1-2)[GlcNAc(b1-3)Gal(b1-4)GlcNAc(b1-3)Gal(b1-4)GlcNAc(b1-3)Gal(b1-4)GlcNAc(b1-3)Gal(b1-4)GlcNAc(b1-6)]Man(a1-6)[GlcNAc(b1-3)Gal(b1-4)GlcNAc(b1-3)Gal(b1-4)GlcNAc(b1-3)Gal(b1-4)GlcNAc(b1-3)Gal(b1-4)GlcNAc(b1-2)Man(a1-3)]Man(b1-4)GlcNAc(b1-4)[Fuc(a1-6)]GlcNAc
# Summary of the method: as §1
# [9] = biological target: GlcNAc(b1-3)Gal(b1-4)GlcNAc(b1-3)Gal(b1-4)GlcNAc(b1-3)GalNAc
# Summary of the method: as §1
# [10] = biological target: GlcNAc(b1-3)Gal(b1-4)GlcNAc(b1-3)GalNAc
# Summary of the method: as §1
# [11] = biological target: GlcNAc(b1-3)Gal(b1-4)GlcNAc(b1-3)[GlcNAc(b1-3)Gal(b1-4)GlcNAc(b1-3)]GalNAc
# Summary of the method: as §1
# [12] = biological target: GlcNAc(b1-3)Gal(b1-4)GlcNAc(b1-6)[Gal(b1-3)]GalNAc
# Summary of the method: as §1
# [13] = biological target: GlcNAc(b1-3)Gal(b1-4)GlcNAc(b1-6)[GlcNAc(b1-3)Gal(b1-3)]GalNAc
# Summary of the method: as §1
# [14] = biological target: GlcNAc(b1-3)Gal(b1-4)GlcNAc(b1-6)[GlcNAc(b1-3)]Gal(b1-4)GlcNAc
# Summary of the method: as §1
# GlcNAc(b1-3)GalNAc = biological target: GlcNAc(b1-3)GalNAc
# Summary of the method: as §1
# GlcNAc(b1-3)Man = biological target: GlcNAc(b1-3)Man
# Summary of the method: as §1
# [15] = biological target: GlcNAc(b1-3)[GlcNAc(b1-4)][GlcNAc(b1-6)]GlcNAc
# Summary of the method: as §1
# [16] = biological target: GlcNAc(b1-3)[GlcNAc(b1-6)]Gal(b1-4)GlcNAc
# Summary of the method: as §1
# [17] = biological target: GlcNAc(b1-3)[GlcNAc(b1-6)]GalNAc
# Summary of the method: as §1
# [18] = biological target: GlcNAc(b1-3)[GlcNAc(b1-6)]GlcNAc(b1-4)GlcNAc
# Summary of the method: as §1
# [19] = biological target: GlcNAc(b1-4)Gal(b1-4)GlcNAc
# Summary of the method: as §1
# GlcNAc(b1-4)GlcNAc = biological target: GlcNAc(b1-4)GlcNAc
# Summary of the method: as §1
# [20] = biological target: GlcNAc(b1-4)GlcNAc(b1-4)GlcNAc
# Summary of the method: as §1
# [21] = biological target: GlcNAc(b1-4)GlcNAc(b1-4)GlcNAc(b1-4)GlcNAc(b1-4)GlcNAc
# Summary of the method: as §1
# [22] = biological target: GlcNAc(b1-4)GlcNAc(b1-4)GlcNAc(b1-4)GlcNAc(b1-4)GlcNAc(b1-4)GlcNAc
# Summary of the method: as §1
# [23] = biological target: GlcNAc(b1-4)[GlcNAc(b1-6)]GalNAc
# Summary of the method: as §1
# [24] = biological target: GlcNAc(b1-6)Gal(b1-4)GlcNAc
# Summary of the method: as §1
# GlcNAc(b1-6)GalNAc = biological target: GlcNAc(b1-6)GalNAc
# Summary of the method: as §1
# [25] = biological target: GlcNAc6S(b1-3)Gal(b1-4)GlcNAc
# Summary of the method: as §1
# Kdn(a2-3)Gal(b1-3)GalNAc = biological target: Kdn(a2-3)Gal(b1-3)GalNAc
# Summary of the method: as §1
# Kdn(a2-3)Gal(b1-3)GlcNAc = biological target: Kdn(a2-3)Gal(b1-3)GlcNAc
# Summary of the method: as §1
# Kdn(a2-3)Gal(b1-4)Glc = biological target: Kdn(a2-3)Gal(b1-4)Glc
# Summary of the method: as §1
# Kdn(a2-3)Gal(b1-4)GlcNAc = biological target: Kdn(a2-3)Gal(b1-4)GlcNAc
# Summary of the method: as §1
# [26] = biological target: Kdn(a2-3)Gal(b1-4)[Fuc(a1-3)]GlcNAc
# Summary of the method: as §1
# Kdn(a2-6)Gal(b1-4)GlcNAc = biological target: Kdn(a2-6)Gal(b1-4)GlcNAc
# Summary of the method: as §1
# [27] = biological target: Man(a1-2)Man(a1-2)Man(a1-3)Man
# Summary of the method: as §1
# [28] = biological target: Man(a1-2)Man(a1-2)Man(a1-6)[Man(a1-3)]Man
# Summary of the method: as §1
# Man(a1-2)Man(a1-3)Man = biological target: Man(a1-2)Man(a1-3)Man
# Summary of the method: as §1
# [29] = biological target: Man(a1-2)Man(a1-3)[Man(a1-2)Man(a1-6)]Man
# Summary of the method: as §1
# [30] = biological target: Man(a1-2)Man(a1-3)[Man(a1-2)Man(a1-6)]Man(a1-6)[Man(a1-2)Man(a1-2)Man(a1-3)]Man
# Summary of the method: as §1
# [31] = biological target: Man(a1-2)Man(a1-3)[Man(a1-2)Man(a1-6)]Man(a1-6)[Man(a1-2)Man(a1-2)Man(a1-3)]Man(b1-4)GlcNAc(b1-4)GlcNAc
# Summary of the method: as §1
# [32] = biological target: Man(a1-2)Man(a1-3)[Man(a1-6)]Man(a1-6)[Man(a1-2)Man(a1-3)]Man(b1-4)GlcNAc(b1-4)GlcNAc
# Summary of the method: as §1
# [33] = biological target: Man(a1-2)Man(a1-6)[Man(a1-3)]Man(a1-6)[Man(a1-2)Man(a1-2)Man(a1-3)]Man
# Summary of the method: as §1
# [34] = biological target: Man(a1-2)Man(a1-6)[Man(a1-3)]Man(a1-6)[Man(a1-2)Man(a1-2)Man(a1-3)]Man(b1-4)GlcNAc(b1-4)GlcNAc
# Summary of the method: as §1
# Man(a1-3)[Man(a1-6)]Man = biological target: Man(a1-3)[Man(a1-6)]Man
# Summary of the method: as §1
binder,measurement,setting,value
"ECA (Erythrina cristagalli), P83410 (protein) VETISFSFSEFEPGNDNLTLQGAALITQSGVLQLTKINQNGMPAWDSTGRTLYTKPVHMWDSTTGTVASFETRFSFSIEQPYTRPLPADGLVFFMGPTKSKPAQGYGYLGVFNNSKQDNSYQTLAVEFDTFSNPWDPPQVPHIGIDVNSIRSIKTQPFQLDNGQVANVVIKYDAPSKILHVVLVYPSSGAIYTIAEIVDVKQVLPDWVDVGLSGATGAQRDAAETHDVYSWSFQASLPE",glycan array binding signal (z-score),[1],0.46
same,glycan array binding signal (z-score),[2],3.4
same,glycan array binding signal (z-score),[3],0.782
same,glycan array binding signal (z-score),[4],1.03
same,glycan array binding signal (z-score),[5],2.63
same,glycan array binding signal (z-score),[6],0.245
same,glycan array binding signal (z-score),[7],0.151
same,glycan array binding signal (z-score),[8],3.16
same,glycan array binding signal (z-score),[9],-0.339
same,glycan array binding signal (z-score),[10],-0.407
same,glycan array binding signal (z-score),[11],1.12
same,glycan array binding signal (z-score),[12],-0.412
same,glycan array binding signal (z-score),[13],-0.377
same,glycan array binding signal (z-score),[14],-0.53
same,glycan array binding signal (z-score),GlcNAc(b1-3)GalNAc,-0.366
same,glycan array binding signal (z-score),GlcNAc(b1-3)Man,-0.061
same,glycan array binding signal (z-score),[15],-0.249
same,glycan array binding signal (z-score),[16],-0.297
same,glycan array binding signal (z-score),[17],-0.244
same,glycan array binding signal (z-score),[18],-0.277
same,glycan array binding signal (z-score),[19],-0.336
same,glycan array binding signal (z-score),GlcNAc(b1-4)GlcNAc,-0.307
same,glycan array binding signal (z-score),[20],-0.262
same,glycan array binding signal (z-score),[21],-0.356
same,glycan array binding signal (z-score),[22],-0.31
same,glycan array binding signal (z-score),[23],-0.228
same,glycan array binding signal (z-score),[24],-0.283
same,glycan array binding signal (z-score),GlcNAc(b1-6)GalNAc,-0.317
same,glycan array binding signal (z-score),[25],-0.243
same,glycan array binding signal (z-score),Kdn(a2-3)Gal(b1-3)GalNAc,-0.084
same,glycan array binding signal (z-score),Kdn(a2-3)Gal(b1-3)GlcNAc,-0.278
same,glycan array binding signal (z-score),Kdn(a2-3)Gal(b1-4)Glc,-0.348
same,glycan array binding signal (z-score),Kdn(a2-3)Gal(b1-4)GlcNAc,-0.25
same,glycan array binding signal (z-score),[26],-0.341
same,glycan array binding signal (z-score),Kdn(a2-6)Gal(b1-4)GlcNAc,-0.153
same,glycan array binding signal (z-score),[27],-0.285
same,glycan array binding signal (z-score),[28],-0.248
same,glycan array binding signal (z-score),Man(a1-2)Man(a1-3)Man,-0.285
same,glycan array binding signal (z-score),[29],-0.318
same,glycan array binding signal (z-score),[30],-0.091
same,glycan array binding signal (z-score),[31],0.038
same,glycan array binding signal (z-score),[32],-0.277
same,glycan array binding signal (z-score),[33],-0.187
same,glycan array binding signal (z-score),[34],-0.417
same,glycan array binding signal (z-score),Man(a1-3)[Man(a1-6)]Man,-0.174
